Reference: the supplement of paper PMC4967469
pIC50: −log10 of the molar value. A lower IC50 marks a more sensitive line; a fit beyond the top or the lowest dose is shown as a bound at that dose. AUC is the area under the same curve over the 256-fold range up to the top dose, as a fraction; values near 1 show little effect. For part of these data: The top dose, if marked as inferred, is not printed in the source and was worked back from the curve model.

Key:
Experiment in all cases: Viability of human cancer cell lines after 72 h of drug (GDSC screen)
Methotrexate = compound: CN(Cc1cnc2nc(N)nc(N)c2n1)c1ccc(C(=O)N[C@@H](CCC(=O)O)C(=O)O)cc1 [Methotrexate]; settings: top dose 0.2 µM
Procedure: (§1)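 Human cancer cell lines in 384-well plates, medium with 10% serum, drug for 72 h over a 256-fold dose range (nine 2-fold or five 4-fold steps up to the top dose). Adherent lines were fixed and stained with the nucleic acid dye Syto60, suspension lines read with resazurin; signal relative to control wells, capped at 0 and 100%. One two-parameter sigmoid per drug and line, fitted in a mixed model over all curves with the slope shared within a line.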

Vorinostat = compound: O=C(CCCCCCC(=O)Nc1ccccc1)NO [Vorinostat]; settings: top dose 10 µM
Procedure: as §1

Axitinib = compound: CNC(=O)c1ccccc1Sc1ccc2c(/C=C/c3ccccn3)n[nH]c2c1 [Axitinib]; settings: top dose 2 µM
Procedure: as §1

SN-38 = compound: CCc1c2c(nc3ccc(O)cc13)-c1cc3c(c(=O)n1C2)COC(=O)[C@]3(O)CC [SN-38]; settings: top dose 0.05 µM; top dose inferred
Procedure: as §1

Dabrafenib = compound: CC(C)(C)c1nc(-c2cccc(NS(=O)(=O)c3c(F)cccc3F)c2F)c(-c2ccnc(N)n2)s1 [Dabrafenib]; settings: top dose 10 µM
Procedure: as §1

Cell Line | AUC (Methotrexate) | pIC50 (Methotrexate) | AUC (Vorinostat) | pIC50 (Vorinostat) | AUC (Axitinib) | pIC50 (Axitinib) | AUC (SN-38) | pIC50 (SN-38) | AUC (Dabrafenib) | pIC50 (Dabrafenib)
8-MG-BA (glioma, adherent) | 0.985 | < 6.70 | 0.75 | 5.51 | 0.928 | < 5.70 | 0.422 | 8.71 | – | –
201T (lung adenocarcinoma, adherent) | 0.909 | < 6.70 | 0.728 | 5.48 | 0.96 | < 5.70 | – | – | – | –
A2058 (melanoma, adherent) | 0.959 | < 6.70 | 0.82 | 5.30 | 0.989 | < 5.70 | 0.396 | 8.78 | – | –
AGS (stomach, adherent) | 0.982 | < 6.70 | 0.492 | 6.22 | 0.938 | < 5.70 | – | – | – | –
BB30-HNC (head and neck, adherent) | 0.914 | < 6.70 | 0.715 | 5.60 | 0.912 | < 5.70 | 0.511 | 8.48 | – | –
BB65-RCC (kidney, adherent) | 0.98 | < 6.70 | 0.75 | 5.43 | 0.91 | < 5.70 | 0.477 | 8.57 | – | –
C3A (liver, adherent) | 0.969 | < 6.70 | 0.866 | 5.02 | 0.988 | < 5.70 | 0.532 | 8.41 | – | –
CAL-33 (head and neck, adherent) | 0.95 | < 6.70 | 0.592 | 5.95 | 0.886 | < 5.70 | 0.496 | 8.52 | – | –
CAL-62 (thyroid, adherent) | 0.958 | < 6.70 | 0.778 | 5.41 | 0.94 | < 5.70 | 0.211 | 9.33 | – | –
CHSA8926 (chondrosarcoma, adherent) | 0.98 | < 6.70 | 0.875 | < 5.00 | 0.895 | < 5.70 | 0.837 | < 7.30 | – | –
CL-34 (large intestine, adherent) | 0.935 | < 6.70 | 0.776 | 5.35 | 0.98 | < 5.70 | 0.708 | 7.89 | – | –
D-566MG (glioma, adherent) | 0.984 | < 6.70 | 0.564 | 6.03 | 0.846 | 5.85 | 0.51 | 8.48 | – | –
DB (B-cell lymphoma, suspension) | 0.636 | 7.51 | 0.457 | 6.33 | 0.938 | < 5.70 | 0.532 | 8.41 | – | –
DMS-273 (small cell lung carcinoma, adherent) | 0.965 | < 6.70 | 0.715 | 5.58 | 0.891 | < 5.70 | 0.598 | 8.23 | – | –
DND-41 (T-cell leukaemia, suspension) | – | – | 0.684 | 5.72 | 0.977 | < 5.70 | 0.335 | 8.94 | 0.834 | 5.26
DU-4475 (breast, suspension) | 0.912 | 6.71 | 0.535 | 6.12 | 0.95 | < 5.70 | 0.708 | 7.97 | – | –
EBC-1 (lung squamous cell carcinoma, adherent) | 0.982 | < 6.70 | 0.682 | 5.66 | 0.965 | < 5.70 | 0.356 | 8.93 | – | –
EFM-19 (breast, adherent) | – | – | 0.609 | 5.84 | 0.916 | < 5.70 | 0.824 | < 7.30 | 0.974 | < 5.00
ES-2 (ovary, adherent) | 0.914 | < 6.70 | 0.684 | 5.72 | 0.931 | < 5.70 | 0.64 | 8.14 | – | –
GCIY (stomach, adherent) | 0.983 | < 6.70 | 0.792 | 5.29 | 0.977 | < 5.70 | – | – | – | –
GMS-10 (glioma, adherent) | 0.988 | < 6.70 | 0.81 | 5.28 | 0.973 | < 5.70 | 0.576 | 8.30 | – | –
H3118 (head and neck, adherent) | – | – | 0.478 | 6.27 | 0.914 | < 5.70 | 0.618 | 8.17 | 0.97 | < 5.00
HCC38 (breast, adherent) | – | – | 0.887 | < 5.00 | 0.968 | < 5.70 | 0.612 | 8.19 | 0.985 | < 5.00
HCC70 (breast, adherent) | – | – | 0.742 | 5.52 | 0.944 | < 5.70 | 0.903 | < 7.30 | 0.987 | < 5.00
HCC1395 (breast, adherent) | – | – | 0.857 | < 5.00 | 0.887 | < 5.70 | 0.83 | 7.39 | 0.957 | < 5.00
HCC1419 (breast, adherent) | – | – | 0.633 | 5.77 | 0.877 | < 5.70 | 0.979 | < 7.30 | 0.907 | < 5.00
HCC1428 (breast, adherent) | – | – | 0.478 | 6.27 | 0.975 | < 5.70 | 0.904 | < 7.30 | 0.96 | < 5.00
HCC1569 (breast, adherent) | – | – | 0.81 | 5.12 | 0.911 | < 5.70 | 0.851 | < 7.30 | 0.948 | < 5.00
HT55 (large intestine, adherent) | 0.972 | < 6.70 | 0.667 | 5.74 | 0.983 | < 5.70 | 0.975 | < 7.30 | – | –
HT-1080 (fibrosarcoma, adherent) | 0.986 | < 6.70 | 0.74 | 5.56 | 0.973 | < 5.70 | 0.277 | 9.10 | – | –
